Data as given in PubChem BioAssay (NCI).
Values joined by “and” are separate entries in the source; they are usually repeats but may differ in a detail not shown here. Equal values may be shown once.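 Growth conditions: 96-well plates. Treatment: test compound, 48 hours, 5 concentrations. Analysis: linear interpolation between bracketing concentrations; unreached endpoints set to highest concentration. Abbreviation: GI50, concentration required for 50% inhibition of growth. TGI marks complete inhibition of growth.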

Tested on: NCI-H322M lung
Experiment: inhibition of tumour cell growth, NCI panel, 48 h

Compound	TGI	GI50 [µM]
O=c1cc(NNc2cccc(F)c2)[nH]c(=S)[nH]1	> 100 µM	
COc1cc2nc3n(c(=O)c2cc1OC)CCCCC3	> 100 µM	
CC(=O)Nc1ccc(C(=O)n2[nH]c(C)c(/C=C3\C(=O)C=Cc4ccccc43)c2=O)cc1	> 100 µM	
COc1cc(CC2C(=O)OCC2[C@@H](OC(C)=O)c2ccc3c(c2)OCO3)c(Br)c(OC)c1OC (stereo partly specified)	> 100 µM	
COC(=O)C1=Cc2cn(S(=O)(=O)c3ccc(C)cc3)c3cccc(c23)C(C=C(C)C)N1C(C)=O (stereo unspecified)	> 100 µM	
CCC1OC2C(CC=C(C)C)=C3OC(C)(O)C(C)(CC)C(=O)C3=C3OC(=O)C=C1C32 (stereo unspecified)	> 100 µM	
COC(=O)CC1NC(=O)C1C(C)(OC)OC (stereo unspecified)	> 100 µM	
C=CCCCC(O)c1ccc(C(O)c2cnc3ccccc3c2)o1 (stereo unspecified)	76.4 µM	25.7
CCN(CC)CCNC(=O)C(Cl)=C1C(Cl)=C(Cl)C(Cl)=C1Cl	23.1 µM	10.1
C=CNC(=S)n1nc(-c2ccccc2NC(=O)C(F)(F)F)c(=O)n(C(=S)NC=C)c1=S	> 100 µM	
COc1cc(=O)oc(/C=C/CO)c1C	> 100 µM	
Cc1cc(N(CCC#N)CCC#N)ccc1CC1N=C(c2ccccc2)OC1=O (stereo unspecified)	> 100 µM	
N#CCN1CCCN(CC#N)CCN(CC#N)CCCN(CC#N)CC1	> 100 µM	
COc1cc2oc(-c3ccc(O)cc3)cc(=O)c2c(OC)c1O	> 100 µM	
CN(C)CCOc1ccc2[nH]c(C(=O)N3CC(CCl)c4ccc(N)cc43)cc2c1 (stereo unspecified)	3.62 µM	
CCCCc1c2c(nc3c1CCCC3=O)CCCC2	> 100 µM	
CC/C(=C(/CC)c1ccc(O)cc1)c1ccc(O)cc1	23.8 µM	9.62
CON(C(=O)OC(C)(C)C)c1ccccc1	> 100 µM	
Cc1ccc(O)cc1 (tested in a mixture with another compound)	> 100 µM	
COc1cc([C@@H]2c3cc4c(cc3[C@@H](NC(=O)c3ccc(OC(C)=O)cc3)C3COC(=O)[C@@H]32)OCO4)cc(OC)c1O (stereo partly specified)	> 100 µM	
CC1(C)OC2[C@@H](CO[C@@]3([C@H]4OC(C)(C)O[C@@H]4CO)OC(C)(C)O[C@@H]23)O1 (stereo partly specified)	> 100 µM	
O=Cc1cn(S(=O)(=O)c2ccccc2)c2ccccc12	> 100 µM	
O=C1Nc2c(ccc(Cl)c2Cl)/C1=C\c1cc(C(F)(F)F)cc(C(F)(F)F)c1	20.6 µM	6.28
NCCCCCCCCCn1c2c(c3ccccc3c1=O)C(=O)c1ccccc1-2	18.9 µM	9.07
CC(=O)CC12NC(=O)N(C)N=C1N(C)C(=O)N(C)C2=O (stereo unspecified)	> 100 µM	
C=C(C)[C@@H]1CCC2=C(CC[C@]3(C)[C@@H]([C@@H](CCC=C(C)C)C(=O)O)[C@H](O)C[C@@]23C)[C@@]1(C)CCC(=O)O	> 100 µM	
COc1ccc2c(c1)CC1N(C)CCC13CCCCC23 (stereo unspecified)	> 100 µM	

Compound	TGI	GI50 [µM]
O=c1[nH]c(-c2ccc([N+](=O)[O-])cc2)nc2ccc(Cl)cc12	> 100 µM	
CCCCC1N=CNc2c1ccc1c2[nH]c2ccccc21 (stereo unspecified)	6.57 µM	
CN1CCN(Cn2nc(-c3cc(F)c(Cl)cc3Cl)oc2=S)CC1	> 100 µM	36.9
COc1cc(C2c3cc4c(cc3OC(NNc3ccccc3)C2C)OCO4)cc(OC)c1O (stereo unspecified)	95.6 µM	
COc1ccc(Oc2nc3c(N)cc(C(F)(F)F)cc3nc2-c2ccccc2)cc1	> 100 µM	
Cc1cc(Cl)ccc1Nc1nc2c(s1)C(=O)c1ccccc1C2=O	10.5 µM	
O=C(c1ccccc1)c1c2n(c3c1cc(O)c1ccccc13)CCN2	9.11 µM	3.34
CCN(CCN(CC)C(=O)NC)C(=O)NC	> 100 µM	
O=C1C(c2c(O)[nH]c3ccc(I)cc23)=Nc2ccccc21	19.8 µM	
Cc1cc(C)c(C(=O)/C(=C/c2ccccc2)c2ccccc2)c(C)c1	> 100 µM	
ClCc1ccc(-c2ccc(Cn3cnc4c(Cl)ncnc43)cc2)cc1	4.72 µM	1.99
Cc1cc2c(cc1-c1cc3c(cc1C)C(C(C)C)=C(O)C(=O)/C3=C\Nc1ccccn1)/C(=C/Nc1ccccn1)C(=O)C(O)=C2C(C)C	> 100 µM	
COC1C(C)OC(OC2CC(C)(O)Cc3cc4c(c(O)c32)C(=O)c2c(O)cc3c(c2C4=O)OC2OC3(C)C(O)C(N(C)C)C2O)C(OC)C1(C)OC (stereo unspecified)	1.43 µM and 0.317 µM	
Cc1nc(-n2nc(-c3ccccc3)cc2-c2ccccc2)sc1C(/C=C/c1ccc([N+](=O)[O-])cc1)=N/NC(N)=S	> 100 µM	
COC(=O)c1cc2c(nc1C)-c1ccccc1OS2(=O)=O	> 100 µM	
COC1/C=C/OC2(C)Oc3c(C)c(O)c4c(O)c(c(C=NOC(c5ccccc5)c5ccccc5)c(O)c4c3C2=O)NC(=O)/C(C)=C/C=C/C(C)C(O)C(C)C(O)C(C)C(OC(C)=O)C1C (stereo unspecified)	8.25 µM	2.29
Brc1ccc(C[N+]23CN4CN(CN(C4)C2)C3)cc1	> 100 µM	
COC(=O)C1=C(C)NC2=C(C(=O)c3ccccc32)C1c1cn[nH]c1-c1ccccc1 (stereo unspecified)	> 100 µM	
COc1cccc2c1C(=O)c1c(O)c3c(c(O)c1C2=O)CC(O)(C(C)=O)CC3O (stereo unspecified)	36.6 µM	
Clc1ccc(Nc2nnc(CNc3ccc(-c4nnc(Nc5ccc(Cl)cc5)o4)cc3)o2)cc1	> 76.9 µM	
Cn1c(=O)c(-c2c(Cl)cccc2Cl)cc2cnc(Nc3ccc(I)cc3)nc21	70.1 µM	7.14
O=c1[nH]c(-c2ccc(Cl)cc2)cc2ccsc12	> 100 µM	
O=C1C(Cl)C(c2ccc([N+](=O)[O-])cc2)N1n1cnc2ccccc2c1=O (stereo unspecified)	> 100 µM	
N#CC(C#N)C1CN2CCC1CC2 (stereo unspecified)	> 100 µM	
COc1cc(/C=C/c2ccc(S(N)(=O)=O)cc2)cc(OC)c1	68.7 µM	
O=C1c2ccccc2-c2ccccc2C1(Cl)Cl	2.63 µM	1.32
CC(O)c1ccc(C(O)/C(=N\NC(=O)c2ccncc2)c2nc3ccc([N+](=O)[O-])cc3[nH]c2=O)cc1 (stereo unspecified)	> 100 µM	

Compound	TGI	GI50 [µM]
Cc1ccc(S(=O)(=O)NCCCSCCO)cc1	> 100 µM	
CN(C)C=Nc1c2c(nc3ccccc13)CCCC2	> 100 µM	
c1ccc(Sc2nc(Sc3ccccc3)nc(Sc3ccccc3)n2)cc1	32.9 µM	
COc1ccc(N2C(=O)C3C=CC(n4[nH]c(=O)n(Cc5ccccc5)c4=O)CC3C2=O)cc1 (stereo unspecified)	> 100 µM	
COc1ccc(OC)c(-c2cc(=O)c3cc4c(cc3[nH]2)OCO4)c1	> 100 µM	
O=C(NCCCc1cn[nH]c(=O)n1)c1cccc2nc3ccccc3nc12	> 100 µM	
Cc1ccc(Cc2n[nH]c(=O)n2N2C(=O)c3ccccc3C2=O)cc1	> 100 µM	
COc1ccc(C=NCCCN=Cc2ccc(OC)cc2O)c(O)c1	> 100 µM	
CN1c2ccccc2S(=O)(=O)n2c(COc3ccccc3)nnc21	> 100 µM	
O=C(O)CCCc1cc2c(s1)-c1cccc3cccc-2c13	92.2 µM	
O=[P+](O)c1cccnc1	> 100 µM	
O=[N+]([O-])c1cccc([I+]c2ccccc2)c1	> 100 µM	45
CCN(CC)CC(O)c1cc(-c2ccc(Cl)cc2)nc2cc(Cl)ccc12 (stereo unspecified)	8.39 µM	2.33
C=C(C)[C@@H]1CC[C@]2(C(=O)N3CCN(C)CC3)CC[C@]3(C)[C@H](CC[C@@H]4[C@@]5(C)CC[C@H](O)C(C)(C)[C@@H]5CC[C@]43C)[C@@H]12	3.38 µM	1.73
O=C1[C@H](O)[C@@H]2CCC[C@@]23CCCN13	> 100 µM	
Clc1ccc(Nc2ncnc3c2sc2ncccc23)c(Cl)c1	> 100 µM	3.05
COCC1N=C(c2cc(OC)c(OC)c(OC)c2-c2cc3c(cc2[C@@H](C)O)OCO3)O[C@H]1c1ccccc1 (stereo partly specified)	> 100 µM	
COc1cccc(/C=C2\CCc3ccccc3C2=O)c1	45.3 µM	18.1
COc1c(C)c(C/C=C(\C)CCCCO)c(OC)c2ccccc12	> 100 µM	
COc1cc2c(cc1OC)-c1[nH]c3ccc([N+](=O)[O-])cc3c1CC(=O)N2	> 100 µM	
CN(CCCCN)c1ccc2c(=O)[nH][nH]c(=O)c2c1	> 100 µM	
CSc1nc(SC)c2c(C)cn(C3OC(C)C(O)C(O)C3O)c2n1 (stereo unspecified)	> 100 µM	
CC1(C)OC2OC(C(=O)c3ccccc3)C3OC(C)(C)OC3C2O1 (stereo unspecified)	> 100 µM	
Oc1[nH]c2ccccc2c1/C=c1/ccc2c(c1)N=C(c1cc(F)cc(F)c1)N=2	34.9 µM	11
Nc1nc(-c2ccc3ccccc3c2)cc(-c2cc(-c3ccc4ccccc4c3)nc(N)n2)n1	> 100 µM	
